Assay in all cases: co-IP; HEK-293T cells co-transfected with 5Myc-6His-BMAL1 constructs and CHR-cpVenus constructs; lysed in IP buffer (10 mM Tris pH 7.5, 150 mM NaCl, 1 mM EDTA, 1% Triton X-100, 0.1% sodium deoxycholate); immunoprecipitated with mouse anti-Myc antibodies, detected with anti-GFP antibodies
Assay [1] concerns the target 5Myc-6His-hBMAL1 (full-length BMAL1 with a 5Myc-6His tag on the N-terminus) (human) (UniProt O00327).
The target of assay [2] is L606A and L607A double mutant 5Myc-6His-hBMAL1 (human) (UniProt O00327).
The target of assay [3] is 5Myc-6His-hBMAL1-N (BMAL1 1-490) (human) (UniProt O00327).
The target of assay [4] is 5Myc-6His-hBMAL1-C longer version (BMAL1 490-626) (human) (UniProt O00327).

Amino acid sequences for entries named in this document (tags omitted). A change or cut given only in a name is not applied to a line headed by its entry. Residues count along the entry.
UniProt O00327: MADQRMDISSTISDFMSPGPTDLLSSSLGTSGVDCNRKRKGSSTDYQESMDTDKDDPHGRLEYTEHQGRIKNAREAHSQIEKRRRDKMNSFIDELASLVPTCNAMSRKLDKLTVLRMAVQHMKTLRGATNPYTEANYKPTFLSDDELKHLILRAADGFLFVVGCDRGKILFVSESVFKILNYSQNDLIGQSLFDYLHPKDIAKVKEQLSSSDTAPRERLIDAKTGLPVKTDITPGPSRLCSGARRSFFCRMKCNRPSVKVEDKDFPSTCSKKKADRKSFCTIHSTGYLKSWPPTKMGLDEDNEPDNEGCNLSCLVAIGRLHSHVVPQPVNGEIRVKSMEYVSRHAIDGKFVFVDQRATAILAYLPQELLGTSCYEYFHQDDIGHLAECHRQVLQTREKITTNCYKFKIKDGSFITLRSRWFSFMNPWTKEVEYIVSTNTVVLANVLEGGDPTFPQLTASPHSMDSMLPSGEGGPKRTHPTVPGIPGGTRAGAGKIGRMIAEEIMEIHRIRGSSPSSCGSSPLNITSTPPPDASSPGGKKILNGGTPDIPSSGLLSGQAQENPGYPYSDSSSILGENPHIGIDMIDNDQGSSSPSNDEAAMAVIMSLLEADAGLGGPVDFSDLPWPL
5Myc-6His-hBMAL1-N (BMAL1 1-490): residues 1-490 of O00327
5Myc-6His-hBMAL1-C longer version (BMAL1 490-626): residues 490-626 of O00327

These are yes or no findings as the source states them, for the method shown. In cells and extracts the contact can be indirect. Some entries that bind do so weakly or less than the wild type. Tags and fused reporters may be left off the sequences shown.

B1: CHRH3-cpVenus (CHRONO 111-264) (domain or fragment, UniProt Q8N365 111-264)
chain: CTTEGDLLFAQKCKELQGFIPPLTDLLNGLKMGRFERGLSSFQQSVAMDRIQRIVGVLQKPQMGERYLGTLLQVEGMLKTWFPQIAAQKSSLGGGKHQLTKHFPSHHSDSAASSPASPMEKMDQTQLGHLALKPKQPWHLTQWPAMNLTWIHTT
Turning to B1, the binding result in assay [1] was “binds”.

B2: CHRH-cpVenus (helical domain of CHRONO, 111-196) (domain or fragment, UniProt Q8N365 111-196)
chain: CTTEGDLLFAQKCKELQGFIPPLTDLLNGLKMGRFERGLSSFQQSVAMDRIQRIVGVLQKPQMGERYLGTLLQVEGMLKTWFPQIA
For B2, the binding entry in assay [1] is recorded as “no binding”.

B3: CHRH4-cpVenus (CHRONO 111-298) (domain or fragment, UniProt Q8N365 111-298)
chain: CTTEGDLLFAQKCKELQGFIPPLTDLLNGLKMGRFERGLSSFQQSVAMDRIQRIVGVLQKPQMGERYLGTLLQVEGMLKTWFPQIAAQKSSLGGGKHQLTKHFPSHHSDSAASSPASPMEKMDQTQLGHLALKPKQPWHLTQWPAMNLTWIHTTPICNPPLSSPGTISFSHGPLGTGTGIGVILFLQH
For the molecule B3, the binding result in assay [1] is recorded as “binds”.

B4: CHRN-cpVenus (N-terminal domain of CHRONO, 1-110) (domain or fragment, UniProt Q8N365 1-110)
chain: MDSPSSVSSYSSYSLSSSFPTSPVNSDFGFPSDSEREDKGAHGPRPDTVGQRGGSRPSPGPIRCRHRSKVSGNQHTPSHPKQRGSASPMAGSGAKRSRDGELETSLNTQG
Turning to B4, in assay [1], the binding result is reported as “no binding”.

B5: CHRHC-cpVenus (helix region plus C-terminus of CHRONO, 111-385) (domain or fragment, UniProt Q8N365 111-385)
chain: CTTEGDLLFAQKCKELQGFIPPLTDLLNGLKMGRFERGLSSFQQSVAMDRIQRIVGVLQKPQMGERYLGTLLQVEGMLKTWFPQIAAQKSSLGGGKHQLTKHFPSHHSDSAASSPASPMEKMDQTQLGHLALKPKQPWHLTQWPAMNLTWIHTTPICNPPLSSPGTISFSHGPLGTGTGIGVILFLQHGVQPFTHSAPTTPVPPTTASPVIPGEPMKLSGEGPRCYSLPVTLPSDWSYTLSPPSLPTLARKMTIGHREQQRSHPPVAADAHLLNL
On to B5, for which the binding entry in assay [1] was “binds”.

B6: CHR-cpVenus (full-length CHRONO fused to cpVenus on the C-terminus) (protein, UniProt Q8N365 1-385)
chain: MDSPSSVSSYSSYSLSSSFPTSPVNSDFGFPSDSEREDKGAHGPRPDTVGQRGGSRPSPGPIRCRHRSKVSGNQHTPSHPKQRGSASPMAGSGAKRSRDGELETSLNTQGCTTEGDLLFAQKCKELQGFIPPLTDLLNGLKMGRFERGLSSFQQSVAMDRIQRIVGVLQKPQMGERYLGTLLQVEGMLKTWFPQIAAQKSSLGGGKHQLTKHFPSHHSDSAASSPASPMEKMDQTQLGHLALKPKQPWHLTQWPAMNLTWIHTTPICNPPLSSPGTISFSHGPLGTGTGIGVILFLQHGVQPFTHSAPTTPVPPTTASPVIPGEPMKLSGEGPRCYSLPVTLPSDWSYTLSPPSLPTLARKMTIGHREQQRSHPPVAADAHLLNL
Regarding B6, the binding result in assay [2] is “no binding”; in assay [3], “no binding”; in assay [4], “binds”; in assay [1], “binds”.

B7: CHRH2-cpVenus (CHRONO 111-262) (domain or fragment, UniProt Q8N365 111-262)
chain: CTTEGDLLFAQKCKELQGFIPPLTDLLNGLKMGRFERGLSSFQQSVAMDRIQRIVGVLQKPQMGERYLGTLLQVEGMLKTWFPQIAAQKSSLGGGKHQLTKHFPSHHSDSAASSPASPMEKMDQTQLGHLALKPKQPWHLTQWPAMNLTWIH
In the case of B7, the binding entry in assay [1] is given as “no binding”.

B8: CHRC-cpVenus (C-terminal domain of CHRONO, 197-385) (domain or fragment, UniProt Q8N365 197-385)
chain: AQKSSLGGGKHQLTKHFPSHHSDSAASSPASPMEKMDQTQLGHLALKPKQPWHLTQWPAMNLTWIHTTPICNPPLSSPGTISFSHGPLGTGTGIGVILFLQHGVQPFTHSAPTTPVPPTTASPVIPGEPMKLSGEGPRCYSLPVTLPSDWSYTLSPPSLPTLARKMTIGHREQQRSHPPVAADAHLLNL
Consider B8, for which the binding result in assay [1] is given as “no binding”.

These data come from publication PMC7177903.
